Laboratory results: PubChem BioAssay AID1956 (SRMLSC, 2009)
This is one part of the list. These are further read-outs of the screen, such as a control signal, another cell line or another target. No call is given for them.

Assay: compounds boosting herpes simplex virus growth – fold increase, host cell viability (AID 1956); note: tested in PC3 cells
Details: HSV replication augmentation in cells; fold increase: measured here: primary screen fold increase 10 uM, at 10 µM, stronger effect = higher value; viability: measured here: host cell viability series, at 25 µM, stronger effect = lower value

**Q.** For `COc1ccc(Nc2nc(C(C)(C)C)nc3c2nnn3Cc2ccccc2Cl)cc1OC`, which fold increase is on record?
**A.** 1.19

**Q.** With `Cc1ccc(NC(=O)CSCCc2ccccn2)nc1` as the compound, how does the fold increase read?
**A.** 1.35

**Q.** What about the viability of the same compound?
**A.** 94.8%

**Q.** Which results are given for `Nc1ccc2c3c(cccc13)CC2`?
**A.** fold increase: 1.33; viability: 97.8%

**Q.** What does the source list for `CCN(CC)C(=O)CSC(Nc1cccc(F)c1)=C(C#N)C#N`?
**A.** fold increase: 5; viability: 91.9%

**Q.** Which fold increase does the source give for `O=C(NCc1cccs1)C1CCCN(S(=O)(=O)c2cccc3cccnc23)C1` (stereo unspecified) here?
**A.** 1.43

**Q.** And the viability?
**A.** 92%

**Q.** Which results are given for `CCOC(=O)C1=C(CSc2nc(-c3ccccc3)ccc2C#N)OC(N)=C(C#N)C1c1ccc(OC)cc1` (stereo unspecified)?
**A.** fold increase: 2.24; viability: 102%

**Q.** For `CC1(C)CN(c2ccccc2)N(C(=O)c2ccc(F)cc2)C1=O`, which fold increase is on record?
**A.** 1.54

**Q.** And the viability?
**A.** 95.3%

**Q.** With `CCN(CC)c1ccc(C=N/C(C#N)=C(\N)C#N)cc1` as the compound, how does the fold increase read?
**A.** 1.34

**Q.** And the viability?
**A.** 97.3%

**Q.** Which fold increase does the source give for `CCN(CC)C(=O)C1CCCN(C/C=C/c2ccccc2)C1` (stereo unspecified) here?
**A.** 1.33

**Q.** What about the viability of the same compound?
**A.** 97.5%

**Q.** With `CCc1ccc2[nH]c(=O)c(CN(Cc3ccccc3OC)Cc3nnnn3Cc3ccco3)cc2c1` as the compound, how does the fold increase read?
**A.** 1.34

**Q.** And the viability?
**A.** 68.9%

**Q.** With `COc1cc(/C=C2\OC(=O)c3c(OC)cccc32)ccc1O` as the compound, how does the fold increase read?
**A.** 2.42

**Q.** And the viability?
**A.** 99.3%

**Q.** For `CC(C)N1CCN(Cc2cccc(-c3ccco3)c2)CC1CCO` (stereo unspecified), which fold increase is on record?
**A.** 1.33

**Q.** Which fold increase does the source give for `O=C(c1oc(=O)c2ccccc2c1-c1ccccc1)N1CCC(O)CC1` here?
**A.** 1.37

**Q.** What about the viability of the same compound?
**A.** 93.9%

**Q.** What does the source list for `O=C(Nc1ccc(Cl)cc1)NC1CCCCNC1=O` (stereo unspecified)?
**A.** fold increase: 1.35; viability: 101%

**Q.** For `COc1cc(N2CCCC2)c(OC)cc1/C=C(/C#N)c1ccc(Br)cc1`, which fold increase is on record?
**A.** 2.31

**Q.** With `COc1cc(/C=c2\s/c(=C(/C#N)C(=O)N3CCCC3)n(-c3ccccc3)c2=O)ccc1O` as the compound, how does the fold increase read?
**A.** 4.36

**Q.** What about the viability of the same compound?
**A.** 97%

**Q.** With `C=CCN1C(=O)/C(=C\c2ccc(OC(=O)c3ccco3)c(OC)c2)SC1=S` as the compound, how does the fold increase read?
**A.** 8.86

**Q.** And the viability?
**A.** 99.2%

**Q.** Which fold increase does the source give for `O=C1C=C(NCc2ccc(Cl)cc2)CCC1` here?
**A.** 1.32

**Q.** With `COC(=O)C1=COC(C)C2CN3CCc4c([nH]c5ccccc45)C3CC12` (stereo unspecified) as the compound, how does the fold increase read?
**A.** 1.41

**Q.** And the viability?
**A.** 88.4%

**Q.** Which fold increase does the source give for `COc1ccc(C2=CC(c3sccc3C)n3nnnc3N2)cc1` (stereo unspecified) here?
**A.** 5.44

**Q.** What about the viability of the same compound?
**A.** 85.4%

**Q.** Which results are given for `O=C(O)CC1(CC(=O)NCc2ccncc2)CCCCC1`?
**A.** fold increase: 1.33; viability: 99.1%

**Q.** With `O=C(CSC1=NCCS1)Nc1ccc(S(=O)(=O)NC2CCCCC2)cc1` as the compound, how does the fold increase read?
**A.** 1.6

**Q.** What about the viability of the same compound?
**A.** 103%

**Q.** For `CC1CCN(C(=O)CSc2nc3ccccc3c(=O)n2Cc2ccc3c(c2)OCO3)CC1`, which fold increase is on record?
**A.** 1.37

**Q.** And the viability?
**A.** 97.8%

**Q.** For `CCOC(=O)c1c(NC(=S)Nc2ccccc2)sc2c1CCN(CC)C2`, which fold increase is on record?
**A.** 1.32

**Q.** Which fold increase does the source give for `Nc1ccc(Oc2ccccc2F)nc1` here?
**A.** 1.57

**Q.** What about the viability of the same compound?
**A.** 98.5%

**Q.** With `Oc1ccc(-c2nc3ccccc3s2)c(O)c1` as the compound, how does the fold increase read?
**A.** 1.32

**Q.** Which fold increase does the source give for `CCOC(=O)Cc1csc(NC(=O)c2sc3nc4ccc(CC)cc4cc3c2N)n1` here?
**A.** 2.72

**Q.** And the viability?
**A.** 99.7%

**Q.** For `N=c1oc2c3c4c(cc2cc1C(=O)Nc1ccccc1)CCCN4CCC3`, which fold increase is on record?
**A.** 6.54

**Q.** And the viability?
**A.** 94.4%

**Q.** With `CCCCN(C)C1=CC2=CC(=C(C#N)C#N)CCC2CC1` (stereo unspecified) as the compound, how does the fold increase read?
**A.** 8.28

**Q.** And the viability?
**A.** 85.3%

**Q.** Which fold increase does the source give for `CC(C)NC(=S)N/N=C/c1cccs1` here?
**A.** 1.22

**Q.** Which fold increase does the source give for `COc1ccc(C(=O)NCCn2ccc3ccccc32)c(OC)c1` here?
**A.** 1.58

**Q.** What about the viability of the same compound?
**A.** 82%

**Q.** Which fold increase does the source give for `COc1ccc2c(c1)CCc1sc(NC(=O)c3ccc(C)cc3)nc1-2` here?
**A.** 1.16

**Q.** For `C=CCN1C(=O)/C(=C/C(=O)OC)S/C1=N\NC(=O)c1ccccc1`, which fold increase is on record?
**A.** 1.33

**Q.** What about the viability of the same compound?
**A.** 95.2%

**Q.** Which fold increase does the source give for `O=C1CCCC2=C1C(c1ccc(Cl)cc1)n1c(s/c(=C\c3ccc4ccncc4c3)c1=O)=N2` (stereo unspecified) here?
**A.** 1.45

**Q.** And the viability?
**A.** 65.8%

**Q.** With `O=[N+]([O-])c1ccc(C2=NN(c3ccccc3)C(c3ccco3)C2)cc1` (stereo unspecified) as the compound, how does the fold increase read?
**A.** 9.93

**Q.** What about the viability of the same compound?
**A.** 102%

**Q.** What does the source list for `COc1ccc(C(=O)Nc2cccnc2Sc2ccc(Cl)cc2)cc1`?
**A.** fold increase: 1.41; viability: 103%

**Q.** Which results are given for `CC(=O)Oc1ccc2c(c1)Oc1cc(OC(C)=O)ccc1C21OC(=O)c2ccccc21`?
**A.** fold increase: 8.15; viability: 97.3%

**Q.** Which results are given for `O=C(COC(=O)CCC(=O)c1cccs1)Nc1ncc(Cl)cc1Cl`?
**A.** fold increase: 1.36; viability: 96.1%

**Q.** With `COc1cc(-c2nnc(COc3ccc(Cl)cc3C)o2)cc(OC)c1OC` as the compound, how does the fold increase read?
**A.** 1.07

**Q.** For `Cn1c(=O)c(N)c2c3c(c(Br)ccc31)C(=O)c1ccccc1-2`, which fold increase is on record?
**A.** 2.36

**Q.** What about the viability of the same compound?
**A.** 75%

**Q.** What does the source list for `COc1cc(Cl)c(C)cc1NC(=O)COc1ccccc1[N+](=O)[O-]`?
**A.** fold increase: 1.34; viability: 95.4%

**Q.** Which fold increase does the source give for `CCOC(=O)CN1C(=O)S/C(=C/c2ccc(N3CCCCC3)o2)C1=O` here?
**A.** 3.44

**Q.** And the viability?
**A.** 96.4%

**Q.** Which fold increase does the source give for `O=C(NC(=O)c1ccccc1)NC1(C(F)(F)F)OCCO1` here?
**A.** 2.08

**Q.** What about the viability of the same compound?
**A.** 97%

**Q.** Which fold increase does the source give for `CN1Cc2sc(NC(=S)NC(=O)c3ccccc3)c(C#N)c2CC1(C)C` here?
**A.** 3.73

**Q.** What about the viability of the same compound?
**A.** 89.3%

**Q.** With `CCN(CC)c1ccc(C=C(c2nnnn2-c2ccccc2)c2nnnn2-c2ccccc2)cc1` as the compound, how does the fold increase read?
**A.** 1.77

**Q.** And the viability?
**A.** 95.8%

**Q.** What does the source list for `CC(C)(C)c1nnc(NC(=O)CCn2cnc3ccccc3c2=O)s1`?
**A.** fold increase: 1.52; viability: 85.8%

**Q.** Which fold increase does the source give for `CCCCN(C)CCNC(=O)Cn1ncc2c(=O)oc3ccc(C)cc3c21` here?
**A.** 1.32

**Q.** And the viability?
**A.** 94.5%

**Q.** Which fold increase does the source give for `COc1ccc(N=CC2=C(Nc3ccc(OC)cc3)c3c(C)nn(-c4ccccn4)c3CC2)cc1` here?
**A.** 5.73

**Q.** What about the viability of the same compound?
**A.** 22.2%

**Q.** With `CCOC(=O)C1CCCCN1Cc1cccc(C(F)(F)F)c1` (stereo unspecified) as the compound, how does the fold increase read?
**A.** 1.32

**Q.** And the viability?
**A.** 98.1%

**Q.** Which fold increase does the source give for `N#CC12COC3(CCCCC3C1(C#N)C#N)OC2=N` (stereo unspecified) here?
**A.** 1.46

**Q.** And the viability?
**A.** 94.5%

**Q.** Which results are given for `COc1ccccc1NC(=O)c1ccc(Br)o1`?
**A.** fold increase: 1.38; viability: 97.7%

**Q.** For `CCCOc1ccc(C(=O)NNC(=S)NC(=O)c2cc(-c3ccccc3)nc3ccccc23)cc1`, which fold increase is on record?
**A.** 1.18

**Q.** Which results are given for `CCOC(=O)NC(=O)C(/C=N/c1sccc1C(=O)OC)=C(\C)O`?
**A.** fold increase: 1.99; viability: 95.5%

**Q.** With `COc1ccc(C(=O)c2sc3nc(-c4ccccc4)ccc3c2N)cc1OC` as the compound, how does the fold increase read?
**A.** 1.54

**Q.** What about the viability of the same compound?
**A.** 99.8%

**Q.** With `O=Cc1sc(Nc2ccccc2)nc1Cl` as the compound, how does the fold increase read?
**A.** 1.6

**Q.** And the viability?
**A.** 93.8%

**Q.** Which fold increase does the source give for `Cc1c(O)c2c3c(cccc3c1O)C(=O)N(c1ccccc1)C2=O` here?
**A.** 3.46

**Q.** What about the viability of the same compound?
**A.** 99.1%

**Q.** For `CCCCn1c(NC(=O)c2ccccc2Cl)c(C#N)c2nc3ccccc3nc21`, which fold increase is on record?
**A.** 1.7

**Q.** And the viability?
**A.** 83.6%

**Q.** Which fold increase does the source give for `CC1(C)CC(NC(=O)CCc2nnc(CCCCc3ccccc3)o2)CCO1` (stereo unspecified) here?
**A.** 1.38

**Q.** And the viability?
**A.** 107%

**Q.** With `COc1ccc(C)cc1S(=O)(=O)N(C)CC(=O)N1CCC(C(N)=O)CC1` as the compound, how does the fold increase read?
**A.** 1.59

**Q.** And the viability?
**A.** 98.9%

**Q.** With `Cc1ccc(C2CC(c3cccs3)n3nc(N)nc3N2)cc1` (stereo unspecified) as the compound, how does the fold increase read?
**A.** 1.51

**Q.** And the viability?
**A.** 93.5%

**Q.** Which fold increase does the source give for `CCOC(=O)C(=O)Cc1nc2ccccc2s1` here?
**A.** 2.29

**Q.** And the viability?
**A.** 88.3%

**Q.** With `O=S(=O)(Nn1c(O)c(C=C2N=c3ccccc3=N2)sc1=S)c1ccccc1` as the compound, how does the fold increase read?
**A.** 1.39

**Q.** What about the viability of the same compound?
**A.** 93.8%

**Q.** For `Cn1c(=S)[nH]c2[nH]c(=O)cnc2c1=O`, which fold increase is on record?
**A.** 1.43

**Q.** What about the viability of the same compound?
**A.** 97.2%
